Measurements: PubChem BioAssay AID588795 (National Center for Advancing Translational Sciences (NCATS), 2011)
Hit rate of the full screen: of about 390,000 compounds, about 1,400 (0.36%) were called active. The shares of active, inactive and inconclusive entries below differ from those in the screen. Calls follow the shape of the dose curve; as a rule, active = well fitted inhibition curve with a large enough effect; inconclusive = small, poorly fitted or top-dose-only effect; inactive = no such curve, though single readings can be large or run the other way. Where the call is inconclusive, the potency comes from a doubtful curve fit.

target: Flap endonuclease 1 (Homo sapiens) (UniProt P39748); assay: qHTS Assay for the Inhibitors of Human Flap endonuclease 1 (FEN1).; also: nearly all actives have a fitted effect of over 65% in size; settings: Recombinant FEN1 flap cleavage, fluorescence, 15 min; series mostly up to 114 µM; activity change, negative = inhibition: at the top concentration
Outline: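 FEN1 at 10 nM preincubated with compounds 15 min at room temperature, then flap DNA substrate added at 50 nM final. Signal read at 0 and 15 min; concentration-response fitted with four-parameter Hill equation.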
% is scaled to controls: 0 for no effect and ±100 for the full control effect; potency is read from the fitted curve at half-maximal effect; tags tell the direction and shape of the fitted curve.

Sequence of UniProt P39748 (P39748 whole entry, looked up): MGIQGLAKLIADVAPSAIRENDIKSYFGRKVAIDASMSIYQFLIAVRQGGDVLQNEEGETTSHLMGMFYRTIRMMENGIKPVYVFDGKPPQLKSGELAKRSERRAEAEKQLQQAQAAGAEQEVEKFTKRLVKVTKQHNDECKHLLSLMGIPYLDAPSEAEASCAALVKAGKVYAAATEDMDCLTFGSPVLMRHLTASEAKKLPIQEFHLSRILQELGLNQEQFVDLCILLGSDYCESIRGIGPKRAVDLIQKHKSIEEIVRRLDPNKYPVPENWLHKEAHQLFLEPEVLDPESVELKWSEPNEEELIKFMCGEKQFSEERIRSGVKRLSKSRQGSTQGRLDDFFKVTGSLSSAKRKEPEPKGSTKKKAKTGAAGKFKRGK

Compound	activity change, negative = inhibition	Potency
CCCn1c(CCC(=O)Nc2cc(C(=O)OC)cc(C(=O)OC)c2)nc2cccnc21	inactive: 4.27%	
Cc1cc(-c2nnc(SCC(=O)c3ccc(F)cc3)o2)no1	inactive: 1.75%	
CCC(CO)Oc1cc(NCc2ccc(C(F)(F)F)cc2)c2ncn(C(C)C)c2c1 (stereo not drawn)		inconclusive: 31.6 µM [inhibitor, partial curve, poor fit]
Cn1c(=O)c2c([nH]c(=S)n2CCCc2ccccc2)n(C)c1=O		inconclusive: 89.1 µM [inhibitor, single point]
COc1cc(-c2nnc(COC(=O)c3ccc(C)o3)o2)cc(OC)c1OC	inactive: 0.438%	
Fc1cccc(Nc2ncnc3c2cnn3-c2ccccc2)c1		inconclusive: 79.4 µM [inhibitor, partial curve, poor fit]
O=[N+]([O-])c1cc(C(F)(F)F)ccc1NCCc1c[nH]c2ccccc12		inconclusive: 56.2 µM [inhibitor, partial curve, poor fit]
Cc1cc(NS(=O)(=O)c2ccc(Nc3nc(-c4sc(N)nc4C)cs3)cc2)no1		active: 56.2 µM
COc1ccc2nc(-c3ccco3)c(-c3ccco3)nc2c1		inconclusive: 56.2 µM [inhibitor, partial curve]
COC(=O)c1c(C)[nH]c(C(=O)COc2ccc3ccc(=O)oc3c2)c1C		inconclusive: 56.2 µM [inhibitor, partial curve]
Cc1ccc(-c2cc(C(=O)Nc3ccc(S(=O)(=O)N4CC(C)OC(C)C4)cc3)[nH]n2)c(O)c1 (stereo not drawn)		inconclusive: 89.1 µM [inhibitor, partial curve, poor fit]
Cc1ccc(Cn2nnc3c(=O)[nH]c(C4CCCN(C(=O)Nc5ccc(F)cc5F)C4)nc32)cc1 (stereo not drawn)		inconclusive: 89.1 µM [inhibitor, partial curve, poor fit]
Nc1nn2cc(-c3ccccc3)nc2c2ccccc12		inconclusive: 89.1 µM [inhibitor, partial curve, poor fit]
COc1ccccc1NC(=O)CSC1=Nc2ccccc2C2=NC(CCC(=O)NCc3ccco3)C(=O)N12 (stereo not drawn)	inactive: -8.1%	
Cc1cc(C)cc(N2C(=O)CN(Cc3ccccc3)C2=S)c1		inconclusive: 79.4 µM [inhibitor, single point]
O=C(Nc1cccc(Cl)c1)c1ccc2c(c1)CCN2S(=O)(=O)c1ccccc1	inactive: 6%	
Oc1ccccc1CNc1cccc2cccnc12		inconclusive: 89.1 µM [inhibitor, single point]
CCOc1ccc(-n2cc(-c3ccccc3)c3c(N4CCN(c5ccccc5OC)CC4)ncnc32)cc1	inactive: -2.3%	
CC(=O)c1ccc(N2CCN(C(=O)CCC(=O)Nc3ccc4nc(N5CCN(C)CC5)cc(C)c4c3)CC2)cc1		inconclusive: 89.1 µM [inhibitor, partial curve, poor fit]
CN(Cc1ccccc1)c1ccc(-c2nc(-c3ccccn3)no2)cc1[N+](=O)[O-]	inactive: 11.1%	
COc1ccc(-c2oc3ncn(CCN4CCOCC4)c(=N)c3c2-c2ccc(OC)cc2)cc1		inconclusive: 35.5 µM [inhibitor, partial curve, poor fit]
C/C(=N/NC(=O)C(O)(c1ccccc1)c1ccccc1)c1ccc([N+](=O)[O-])o1	inactive: -0.972%	
Cc1cc(C)c(S(=O)(=O)N/N=C/c2ccc([N+](=O)[O-])o2)c(C)c1		inconclusive: 25.1 µM [inhibitor, full curve, poor fit]

Compound	activity change, negative = inhibition	Potency
Oc1ccc(C2=NNC(=NCc3ccc4c(c3)OCO4)SC2)c(O)c1	inactive: 4.43%	
C[N+]1(CC(=O)Nc2ccc(F)cc2)CCN(C(=O)c2ccco2)CC1	inactive: -2.23%	
COc1ccccc1CN1C(=O)CN(C2CCCCCC2)C(=O)C1c1ccc(F)cc1 (stereo not drawn)		inconclusive: 79.4 µM [inhibitor, partial curve, poor fit]
N=C1/C(=C\c2coc3ccccc3c2=O)C(=O)N=C2SC=CN12		inconclusive: 70.8 µM [inhibitor, single point]
COc1ccc(S(=O)(=O)Cc2ccc(C(=O)N3CCN(Cc4ccccc4)CC3)o2)cc1	inactive: -4.81%	
CCc1nnc(N/N=C/c2ccccc2Cl)n1N		inconclusive: 79.4 µM [inhibitor, single point]
Nc1ccc(-c2nc3ccc(N)cc3[nH]2)cc1		inconclusive: 20 µM [inhibitor, full curve]
CCN(C(=O)COC(=O)Cc1coc2cc(C)ccc12)c1c(N)n(Cc2ccccc2)c(=O)[nH]c1=O	inactive: -0.89%	
COc1ccc(C2=C(N3CCN(c4cccc(C)c4)C(C)C3)c3ccccc3C2=O)cc1 (stereo not drawn)	inactive: 11.7%	
CC1CCN(c2nc3ccc(C(=O)NCc4ccccc4Cl)cc3s2)CC1	inactive: 4.81%	
O=[N+]([O-])c1cccnc1Oc1ccccc1F	inactive: 6.98%	
COc1cc2ncc(C(=O)c3ccc(C)cc3)c(N3CCCCC3)c2cc1OC	inactive: -9.4%	
Cc1ccc(S(=O)(=O)/N=C2\C=C(Nc3ccc(O)cc3)C(=O)c3ccccc32)cc1		inconclusive: 44.7 µM [inhibitor, partial curve, poor fit]
O=[N+]([O-])c1ccc(O)c(Nc2ncnc3ccc(Br)cc23)c1		inconclusive: 39.8 µM [inhibitor, partial curve, poor fit]
O=C1C(c2[nH]c3ccc(S(=O)(=O)O)cc3c2O)=Nc2ccc(S(=O)(=O)O)cc21		inconclusive: 12.6 µM [inhibitor, full curve, poor fit]
CCOC(=O)c1cnc2c(ccc3ccccc32)c1NCCCN(C)C		active: 50.1 µM
Cc1ccc(CNC(=O)c2c[nH]n3c(=O)c(Cc4ccc(Cl)cc4)c(C)nc23)cc1		inconclusive: 70.8 µM [inhibitor, partial curve, poor fit]
COc1cc(OC)c(OC)cc1/C=C/c1nccc2ccccc12		inconclusive: 89.1 µM [inhibitor, single point]
Cc1cc2nc(/N=C(\N)NC(=O)C(C)C)nc(C)c2cc1C	inactive: -5.42%	
CC(C)CC1Nc2ncnc(N3CCCCC3)c2N(Cc2ccccc2)C1=O (stereo not drawn)		inconclusive: 89.1 µM [inhibitor, partial curve, poor fit]
O=C(Nc1nnc(SCc2cccnc2)s1)C1CC(=O)N(c2ccc(F)cc2)C1 (stereo not drawn)	inactive: 3.39%	
Cc1ccc(-c2nn(-c3cccc(F)c3)cc2CN2CCN(c3ccccn3)CC2)o1		inconclusive: 50.1 µM [inhibitor, partial curve, poor fit]
CC1(C)OC(c2ccccc2)=C/C(=C/C=C2C(=O)c3ccccc3C2=O)O1		inconclusive: 89.1 µM [inhibitor, partial curve, poor fit]

Compound	activity change, negative = inhibition	Potency
NCCCNC(=S)NCCCN(Cc1ccc(Cl)cc1)c1ccc(Br)cn1		inconclusive: 89.1 µM [inhibitor, single point]
NC(Cc1cccc(-c2ccccc2CP(=O)(O)O)c1)C(=O)O (stereo not drawn)		inconclusive: 8.44 µM [inhibitor, single point]
COC(=O)C[C@H]1c2ccccc2S(=O)(=O)N1c1cccc(OC)c1		inactive
COc1cccc(-c2nnc(SC(C(=O)c3c[nH]c4ccccc34)c3ccccc3)n2C)c1 (stereo not drawn)	inactive: 8.18%	
CCn1cc(S(=O)(=O)c2ccccc2)c(=O)c2cc(F)c(N3CCCC3)cc21	inactive: -13.4%	
CCN(CC)CCCNc1oc(-c2ccccc2[N+](=O)[O-])nc1C#N		inconclusive: 15.8 µM [inhibitor, full curve, poor fit]
CCCCCN1C/C=C\C(c2ccc(OC)cc2)N(Cc2ccc(F)cc2)C(=O)C1 (stereo not drawn)		inconclusive: 89.1 µM [inhibitor, partial curve, poor fit]
O=C(O)C1Cc2ccccc2CN1C(=O)COc1ccc(Cl)cc1Cl (stereo not drawn)	inactive: -0.846%	
O=C(c1ccccc1)c1ccc2nc(-c3ccco3)c(-c3ccco3)nc2c1		inconclusive: 50.1 µM [inhibitor, partial curve, poor fit]
NC(=O)/C(=C\c1ccco1)NC(=O)c1ccc(Br)o1	inactive: 6.6%	
Cc1ccc2c(c1)c(/C=C/c1cc[n+](C)cc1)c(C)n2C		inconclusive: 12.6 µM [inhibitor, full curve, poor fit]
Cn1cnnc1SCC(=O)Nc1sc2c(c1C(N)=O)CCC2		active: 31.6 µM
O=C(O)CN1C(=O)/C(=C\c2cc(Br)ccc2OCc2ccc(F)cc2)SC1=S		inconclusive: 20 µM [inhibitor, full curve, poor fit]
CN(C)S(=O)(=O)c1cc(NC(=O)COC(=O)Cc2ccc(Cl)cc2Cl)ccc1Cl		inconclusive: 79.4 µM [inhibitor, partial curve, poor fit]
CCOC(=O)c1ccc(NC(=O)CN2C(=O)c3cccnc3Sc3ccccc32)cc1	inactive: -9.46%	
Cc1ccc2nc(N=C(N)N)nc(C)c2c1		active: 50.1 µM
CCn1ccnc1CN(C)Cc1cn(-c2cccc(C)c2)nc1-c1cccc(F)c1		inconclusive: 28.2 µM [inhibitor, partial curve]
O=C(COc1ccc(Cl)cc1)Nc1ccc2c(c1)nc1n2CCOC1		inconclusive: 89.1 µM [inhibitor, single point]
CCOc1cccc(OCCOc2ccccc2[N+](=O)[O-])c1	inactive: -11%	
CC(C)N(C(=O)[C@H]1CC(CC(=O)NCC23CC4CC(CC(C4)C2)C3)C(=O)N2CCc3c([nH]c4ccccc34)[C@]12C)C(C)C (stereo partly drawn)		inconclusive: 50.1 µM [inhibitor, partial curve, poor fit]
c1cnc2c(c1)ccc1cccnc12		inconclusive: 37.7 µM [inhibitor, partial curve, poor fit]
COc1ccc2nc3ccccc3nc2c1N		inconclusive: 50.1 µM [inhibitor, partial curve]
